# In all, about 52,000 compounds went through this assay and about 4,300 (8.3%) were called active. Cut-off read from the data, not from the text of the source: active = survival mostly below about 52% (no sharp cut-off); inactive = mostly above about 56%. This is one part of the list.
# System: DeltatarO mutant
# Test: S. aureus survival, RN4220 and DeltatarO strains – OD600, teichoic acid synthesis inhibitors, primary screen (AID 463173)
# Conditions: S. aureus RN4220 wild type/DeltatarO growth, OD600, 18 h, hits give low values, screened at 18.75 µg/mL (by protocol)
row,Structure (SMILES),survival
1,CC(C)c1ccc(NC(=O)CC2Oc3ccccc3NC2=O)cc1 (stereo not drawn),inactive: 71%
2,Cc1cc(OCC(=O)N(Cc2ccc(N(C)C)cc2)C2CCS(=O)(=O)C2)cc(C)c1Cl (stereo not drawn),inactive: 97%
3,Cc1ccc(Cl)cc1NC(=O)CN1C(=O)COc2ccc(S(=O)(=O)N3CCCCCC3)cc21,inactive: 73%
4,COc1ccccc1CCNC(=O)CCc1c(C)c2cc3c(C)c(C)oc3cc2oc1=O,inactive: 101%
5,CCCCN(C)CCCNC(=O)c1cc(-c2cccnc2)nc2ccccc12,inactive: 83%
6,CCOC(=O)C1CCCN(C(=O)Cn2ncn3c(cc4sc(CC)cc43)c2=O)C1 (stereo not drawn),inactive: 70%
7,COC(=O)c1ccc(OC)c(Cn2c(=O)n(-c3cccc(Cl)c3)c(=O)c3c4c(sc32)CN(C(C)=O)CC4)c1,inactive: 62%
8,COc1cc(OC)c(NC(=O)Cc2ccc(-n3c(C)nc4cccnc43)cc2)cc1Cl,inactive: 123%
9,O=C(Nc1ccc(F)cc1)[C@@H](c1ccccc1)N1Cc2ccccc2C1=O,active: 38%
10,CCOc1ccc(CCNC(=O)c2ccc(-c3nc(COc4ccc(C)cc4)c(C)o3)cc2)cc1,inactive: 86%
11,COc1ccc(NC(=O)CSc2nc(-c3ccc(F)cc3)c3cccc(C)c3n2)cc1,inactive: 82%
12,COCCCn1c(SCC(=O)Nc2ccccc2OC)nc2c(sc3ccccc32)c1=O,inactive: 77%
13,COc1ccc(CCNC(=O)c2ccc(Cn3c(=O)c4ccccc4n(Cc4ccc(C)cc4)c3=O)cc2)cc1OC,inactive: 102%
14,COc1ccc(C2C(=O)N(C3CCCCCC3)CC(=O)N2CCc2ccc(OC)c(OC)c2)cc1 (stereo not drawn),inactive: 77%
15,Cc1ccc2nc(CN3CCN(C(=O)Nc4ccc(C)c(F)c4)CC3)oc2c1,inactive: 83%
16,CCCCCC(=O)Nc1ccc(Cc2ccncc2)cc1,inactive: 88%
17,CCCOc1ccc(-c2nc(N3CCC(C)CC3)c3ccccc3n2)cc1,active: -1%
18,CCCn1c2ccccc2c2cnn(CC(=O)N(Cc3ccccc3)C(C)C)c(=O)c21,inactive: 126%
19,CCCCOc1ccc(S(=O)(=O)NCc2csc(-c3ccc(OC)cc3)n2)cc1,inactive: 88%
20,COc1ccc(-c2noc(N3CCC(C(=O)N(C)c4cc(Cl)ccc4OC)CC3)n2)cc1,inactive: 50%
21,O=C(Nn1cnnc1)c1cc2ccccc2oc1=O,inactive: 97%
22,COc1ccc(CCNC(=O)CCc2cn(Cc3ccc(C)cc3)c3ccccc23)c(OC)c1OC,inactive: 52%

row,Structure (SMILES),survival
1,CCC(C)NC(=O)c1[nH]c2cc(C)ccc2c1Sc1ccc(Cl)cc1 (stereo not drawn),inactive: 88%
2,CCOc1cc2[nH]c(=O)n(CCCCC(=O)N3CCN(c4ccccc4)CC3)c(=O)c2cc1OCC,inactive: 77%
3,Cc1cccc(C)c1OCC(=O)Nc1c(C(=O)c2ccc(Br)cc2)oc2ccccc12,inactive: 87%
4,COc1ccc2oc(=O)c(-c3cn4c(n3)sc3cc(F)ccc34)cc2c1,inactive: 76%
5,O=C(CN1C(=O)COc2ccc(S(=O)(=O)N3CCCCCC3)cc21)N1CCN(c2cccc(C(F)(F)F)c2)CC1,active: 61%
6,Cc1cccc(N2CCN(C(=O)C3CCN(S(=O)(=O)c4c(C)noc4C)CC3)CC2)c1C,inactive: 97%
7,COc1ccccc1Cn1cc(C(=O)c2ccc(F)cc2)c(=O)c2cc3c(cc21)OCO3,inactive: 98%
8,Cc1ccc(Nc2ncc(C(=O)N3CCN(c4cccc(Cl)c4)CC3)c3ccccc23)cc1Cl,inactive: 67%
9,Cc1ccc2oc(C(=O)Nc3cccc(-c4nc5ccccc5s4)c3)c(C)c2c1,inactive: 55%
10,Cc1ccccc1OCc1nnc(SCC(=O)O)n1CCc1ccccc1,inactive: 84%
11,Cc1ccc(C)c(N2CCN(C(=O)c3cc(S(=O)(=O)N4CCC(C)CC4)cn3C)CC2)c1,inactive: 81%
12,COc1ccc(CC(=O)NCC(c2cccs2)S(=O)(=O)c2ccc(Cl)cc2)cc1 (stereo not drawn),inactive: 77%
13,Cc1cn(C(=O)c2ccccc2)c(=O)[nH]c1=O,active: 57%
14,Cc1c(C(=O)N2CCCC2)oc2c1-c1nn(CC(=O)NC(C)c3ccccc3)cc1CC2 (stereo not drawn),inactive: 72%
15,Cc1ccc(OC(=O)c2ccco2)cc1C,inactive: 61%
16,Cc1cc(F)ccc1NC(=O)c1ccc2nc(Cc3ccccc3)oc2c1,inactive: 83%
17,COc1ccc(-n2ccn(CC(=O)NCc3ccc(C)cc3)c(=O)c2=O)cc1OC,inactive: 90%
18,COc1ccc(-n2c(=O)c3sc4ccccc4c3n(CC(=O)NC3CCCCC3)c2=O)cc1,inactive: 110%
19,CC(C)c1ccc(N2C(=O)N(Cc3ccccc3Cl)c3ccccc3S2(=O)=O)cc1,inactive: 86%
20,O=C(Nc1cc(C(F)(F)F)ccc1Cl)c1cnn(-c2ccccc2)c1-n1cccc1,active: 0%
21,COC(=O)Cc1c(C)nc2nc(-c3ccc(C)cc3)[nH]n2c1=O,inactive: 92%
22,CCOc1ccc(CCNC(=O)c2cnc3sc(N4CCCCC4)nn3c2=O)cc1,inactive: 69%

row,Structure (SMILES),survival
1,CCOc1cccc2sc(NC(=O)CS(=O)(=O)c3ccc(C)cc3)nc12,inactive: 96%
2,CCN(Cc1ccccc1)S(=O)(=O)c1ccc(F)c(C(=O)Nc2cc(C(F)(F)F)ccc2Cl)c1,active: 17%
3,COc1ccc(N2C(=O)CSC23C(=O)N(CC(N)=O)c2ccccc23)cc1 (stereo not drawn),inactive: 70%
4,Cc1cccc(N(CC(N)=O)C2SC(=O)N(Cc3cccc(C(=O)O)c3)C2=O)c1 (stereo not drawn),inactive: 66%
5,CCC(=O)Nc1nnc2n1CCS2,inactive: 91%
6,Cc1cc(Br)cc2c(C(=O)OCC(=O)c3ccccc3)cc(-c3ccccc3)nc12,inactive: 128%
7,Cc1c(-c2nnc(SCC(=O)Nc3ccc(Cl)cc3)o2)nnn1-c1ccc(F)cc1,inactive: 87%
8,COc1ccccc1N1CCN(C(=O)c2cnc(N3CCOCC3)c3ccccc23)CC1,inactive: 78%
9,Cc1cc(CN2CCN(c3ccc(F)cc3)CC2)cs1,inactive: 69%
10,O=S(=O)(NC1CCCCC1)c1cc(Cl)ccc1Cl,inactive: 96%
11,CCN1CCSc2ccc(C(=O)NCc3ccccc3Br)cc21,inactive: 62%
12,COC(=O)c1ccc([C@H]2Nc3ccc(S(=O)(=O)Nc4cccc(C)c4)cc3[C@H]3C=CC[C@H]32)cc1,inactive: 50%
13,N#C/C(=C\c1cn(CC(=O)NCC2CCCO2)c2ccccc12)C(=O)N1CCCC1 (stereo not drawn),inactive: 112%
14,COCCNC(=O)CCCn1c(SCc2ccccc2Cl)nc2c(sc3ccccc32)c1=O,inactive: 129%
15,COc1ccc(-n2c(=O)c3c(c4cc(OC)ccc4n3C)n(CCC(C)C)c2=O)cc1,inactive: 87%
16,COc1ccccc1C1CC(=O)N(c2cccc(C(F)(F)F)c2)C2=C1C(=O)OC2 (stereo not drawn),inactive: 56%
17,O=C(COc1ccc(Cl)cc1)NCC(c1ccco1)S(=O)(=O)c1ccc(Cl)cc1 (stereo not drawn),inactive: 88%
18,Cc1cc(C)c2oc(-c3ccc(C)c(NC(=O)/C=C/c4ccco4)c3)nc2c1,active: 45%
19,COc1ccc(CNC(=O)c2cc3c(=O)n(C)c4ccccc4c3n2C)c(OC)c1,inactive: 50%
20,CCC(C)(C)NS(=O)(=O)c1cccs1,inactive: 81%
21,Cc1nc(N2CCCC2)ncc1C(=O)N1CCN(c2ccccc2F)CC1,inactive: 94%
22,COc1ccc(Cn2c(CO)cnc2SCc2cccc(C)c2)cc1,inactive: 94%

row,Structure (SMILES),survival
1,COc1ccccc1N1CCN(C(=O)CCS(=O)(=O)c2cc(Br)cc3c2N(C(C)=O)CC3)CC1,inactive: 53%
2,O=C(c1nc2ncccn2n1)N1CCN(C(c2ccccc2)c2ccccc2)CC1,inactive: 82%
3,Cc1ccc(C(=O)n2nc(C)c(S(=O)(=O)N3CCOCC3)c2C)cc1C,inactive: 71%
4,COc1ccc(/C=C/C(=O)O)cc1S(=O)(=O)N1CCCC1,inactive: 90%
5,CC1=C(C(=O)Nc2ccccc2)C(c2cc(Br)ccc2F)n2ncc(C(=O)Nc3ccccc3)c2N1 (stereo not drawn),inactive: 130%
6,COc1cccc(-c2nc(S(=O)(=O)c3ccccc3)c(N3CCC(C)CC3)o2)c1,inactive: 50%
7,Cc1ccc(NC(=O)c2nnn(CC(=O)Nc3ccc(C)c(Cl)c3)c2N)c(C)c1,inactive: 124%
8,CCc1ccccc1Nc1cc(C(=O)NCCCN(C)C2CCCCC2)c2ccccc2n1,inactive: 93%
9,CCOc1ccc(NC(=O)Cn2cc(C(=O)c3ccccc3)c(=O)c3cc4c(cc32)OCCO4)cc1,inactive: 73%
10,COC(=O)c1ccc(NC(=O)CC2C(=O)N(c3ccc(C)cc3)C(=O)N2Cc2ccc(OC)cc2)cc1 (stereo not drawn),inactive: 96%
11,Clc1ccc(-c2noc(-c3cccnc3N3CCN(c4ccccc4)CC3)n2)cc1,inactive: 75%
12,O=C(COc1ccccc1)Nc1nnc(SCc2cc(=O)c3ccccc3[nH]2)s1,inactive: 83%
13,Cc1ccc(C)c(N2CCN(C(=O)c3nn(C)c4c3CS(=O)(=O)c3ccccc3-4)CC2)c1,active: 49%
14,Cc1ccc(OCC(=O)Nc2ccc(S(=O)(=O)N3CCOCC3)cc2)c(C)c1,inactive: 94%
15,O=C1NC(=O)C(=Cc2ccc(N3CCCC3)cc2)C(=O)N1,inactive: 102%
16,Nc1c(C(=O)C2CC2)oc2ccccc12,inactive: 71%
17,Cc1ccn2c(Nc3ccccc3C)c(-c3cccnc3)nc2c1,inactive: 81%
18,Cc1cnc2c(c1SCC(=O)NCc1ccccc1Cl)c(=O)n(C)c(=O)n2C,inactive: 120%
19,CC(C)(Oc1ccc(Cl)cc1)C(=O)Nc1nnc2n1CCS2,inactive: 78%
20,COc1cccc(C(=O)Nc2cccc(OCc3cc(=O)n4cccc(C)c4n3)c2)c1,inactive: 126%
21,Cc1ccc(NC(=O)CCC(=O)N2CCSc3ccccc32)cc1,inactive: 89%
22,Cc1ccc(NC(=O)C2CCC(CNS(=O)(=O)c3ccc4c(c3)C(C)(C)C(=O)N4C)CC2)cc1 (stereo not drawn),active: 67%
